In PubChem BioAssay AID1452 (National Center for Advancing Translational Sciences (NCATS), 2008):
Screen size: about 150,000 compounds; about 190 (0.13%) were called active. The shares of active, inactive and inconclusive entries below differ from those in the screen. The call rests on the fitted dose curve; in most records, active means well fitted inhibition curve with a large enough effect; inconclusive means small, poorly fitted or top-dose-only effect; inactive means flat fitted curve, though single readings scatter. Potencies beside an inconclusive call are fits to weak or partial responses and may not hold up.

These compounds were tested against Polyunsaturated fatty acid lipoxygenase ALOX12 (Homo sapiens) (UniProt P18054) (assay: qHTS Assay for Inhibitors of 12-hLO (12-human lipoxygenase)). Details: purified 12-hLO, xylenol orange hydroperoxide absorbance; series mostly up to 57.1 µM; activity change, negative = inhibition: at the top concentration.
Procedure, shortened: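 Lipoxygenase turnover measured by absorbance at 573 and 405 nm after Fe-XO development. Human 12hLO 150 nM, arachidonate 40 uM, pH 7.0 Hepes buffer with detergent; 15 min compound preincubation, 30 min reaction.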
Further: nearly all actives have a fitted effect of over 55% in size.
On the % scale 0 is the no-effect control and ±100 the full control effect; potency means the concentration at half of the fitted maximal effect; tags describe the fitted curve by direction and shape.

UniProt P18054, sequence (P18054 whole entry, looked up): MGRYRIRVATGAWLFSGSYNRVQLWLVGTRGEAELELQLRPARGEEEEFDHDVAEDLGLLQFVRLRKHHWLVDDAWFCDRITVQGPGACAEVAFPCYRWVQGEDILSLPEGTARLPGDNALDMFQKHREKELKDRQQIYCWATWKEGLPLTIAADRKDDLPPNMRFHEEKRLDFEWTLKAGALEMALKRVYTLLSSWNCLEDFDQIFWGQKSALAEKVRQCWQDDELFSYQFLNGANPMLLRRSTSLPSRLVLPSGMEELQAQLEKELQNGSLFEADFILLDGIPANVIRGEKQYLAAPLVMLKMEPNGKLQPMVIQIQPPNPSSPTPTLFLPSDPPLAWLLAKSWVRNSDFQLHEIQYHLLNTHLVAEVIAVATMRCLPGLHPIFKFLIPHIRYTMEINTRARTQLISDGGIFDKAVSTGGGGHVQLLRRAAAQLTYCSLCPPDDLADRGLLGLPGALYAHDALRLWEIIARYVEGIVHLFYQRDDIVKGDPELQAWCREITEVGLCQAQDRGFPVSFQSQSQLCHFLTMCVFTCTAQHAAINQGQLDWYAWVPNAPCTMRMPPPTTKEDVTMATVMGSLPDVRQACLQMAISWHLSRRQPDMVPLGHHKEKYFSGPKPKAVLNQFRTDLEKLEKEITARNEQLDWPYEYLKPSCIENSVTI

**Q.** How did the Potency turn out when `O=C(c1cccnc1)N(c1cc2sc(=O)oc2c2ccccc12)S(=O)(=O)c1ccccc1` was run?
**A.** inconclusive: 17.8 µM [inhibitor, partial curve]

**Q.** Which “activity change, negative = inhibition” value does the source give for `O=C(CSc1nnc(-c2ccccc2)n1-c1ccccc1)c1cccs1` here?
**A.** inactive: -16%

**Q.** Which Potency does the source give for `Cc1ccc(/C=C2\CCCC3=C2NC(=S)NC3c2ccc(C)cc2)cc1` (stereo not given) here?
**A.** inconclusive: 12.6 µM [inhibitor, partial curve]

**Q.** `Cc1ccc2oc(-c3cccc(NC(=O)Cc4cccs4)c3)nc2c1` was tested. Which “activity change, negative = inhibition” value did it give?
**A.** inactive: 0.377%

**Q.** How did the “activity change, negative = inhibition” value turn out when `O=C(N/N=C/c1ccc2c(c1)OCO2)c1cc(-c2ccccc2Cl)nc2ccccc12` was run?
**A.** inactive: -3.08%

**Q.** With `Cc1nc(N)sc1N=Nc1ccc(Br)cc1` as the compound, how does the Potency read?
**A.** inconclusive: 31.6 µM [inhibitor, single point]

**Q.** `Cc1occc1-c1nnc(SCCCC(=O)c2ccc(F)cc2)n1C` was tested. Which “activity change, negative = inhibition” value did it give?
**A.** inactive: 10.8%

**Q.** With `Cc1ccc(C)c(NC(=S)NCc2ccc3[nH]c4c(c3c2)CCCC4)c1` as the compound, how does the Potency read?
**A.** inconclusive: 31.6 µM [inhibitor, single point]

**Q.** Which Potency does the source give for `Cc1ccc(S(=O)(=O)CNC(=S)c2cccc(Cl)c2)cc1` here?
**A.** inconclusive: 25.1 µM [inhibitor, single point]

**Q.** For `O=C1NC2(CCCCC2)NN1c1ccccc1`, which Potency is on record?
**A.** active: 3.98 µM

**Q.** How did the Potency turn out when `O=C(c1cccc(F)c1)N1CCC[C@@]2(CCN(c3ccccc3)C2)C1` was run?
**A.** inconclusive: 7.08 µM [inhibitor, full curve]

**Q.** For `CCC(C)NC(=O)c1ccc(CSCc2cccc(F)c2)o1` (stereo not given), which “activity change, negative = inhibition” value is on record?
**A.** inactive: 3.23%

**Q.** `O=C1C2CCCN2c2ccc(S(=O)(=O)N3CCOCC3)cc2N1Cc1ccccc1F` (stereo not given) was tested. Which “activity change, negative = inhibition” value did it give?
**A.** inactive: -9.82%

**Q.** `C/C(=N\NC(=S)NCc1ccccc1)c1ccccc1` was tested. Which Potency did it give?
**A.** inconclusive: 28.2 µM [inhibitor, single point]

**Q.** For `S=C(Nc1ccc(Cl)cc1Cl)Nc1ccccc1Oc1ccccc1`, which Potency is on record?
**A.** inconclusive: 25.1 µM [inhibitor, single point]

**Q.** For `S=C(NCc1ccccc1)NCc1cccc(CNC(=S)NCc2ccccc2)c1`, which Potency is on record?
**A.** inconclusive: 25.1 µM [inhibitor, single point]

**Q.** Which Potency does the source give for `CCOc1ccccc1NC(=S)N1C2CCC1CC(NC(=O)NC13CC4CC(CC(C4)C1)C3)C2` (stereo not given) here?
**A.** inconclusive: 35.5 µM [inhibitor, single point]

**Q.** With `O=C1CS/C(=N\C(=O)N2c3ccccc3Sc3ccccc32)N1` as the compound, how does the Potency read?
**A.** inconclusive: 22.4 µM [inhibitor, single point]

**Q.** How did the Potency turn out when `CCOC(=O)c1c(-c2ccc(C)o2)csc1NC(=O)CSc1nncs1` was run?
**A.** inconclusive: 7.08 µM [inhibitor, partial curve]

**Q.** For `CC(NC(=O)C1CCCN(S(=O)(=O)c2cnc[nH]2)C1)c1ccccc1` (stereo not given), which Potency is on record?
**A.** inconclusive: 8.91 µM [inhibitor, single point]
